Out of some 48,000 compounds screened, about 1,200 (2.5%) were called active. Roughly 2% stayed inconclusive and do not appear here.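 Rule for the calls: active = activation of at least 60% and not above a set upper limit (about 1 call in 100 departs from these limits); inconclusive = activation of 40% to 60%, or above that upper limit; inactive = activation under 40%.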 This is one part of the list.
What follows are compounds tested against Probable G-protein coupled receptor 32 (Homo sapiens) (UniProt O75388) (assay: qHTS for Agonists of Human Resolvin D1 Receptor DRV1). Conditions: CHO-K1 GPR32 beta-arrestin PathHunter luminescence, 90 min; at 76.9 µM; stronger effect = higher value; zero percent set by DMSO-only wells.
Chain of UniProt O75388 (O75388 whole entry, looked up, the tested form may be a part): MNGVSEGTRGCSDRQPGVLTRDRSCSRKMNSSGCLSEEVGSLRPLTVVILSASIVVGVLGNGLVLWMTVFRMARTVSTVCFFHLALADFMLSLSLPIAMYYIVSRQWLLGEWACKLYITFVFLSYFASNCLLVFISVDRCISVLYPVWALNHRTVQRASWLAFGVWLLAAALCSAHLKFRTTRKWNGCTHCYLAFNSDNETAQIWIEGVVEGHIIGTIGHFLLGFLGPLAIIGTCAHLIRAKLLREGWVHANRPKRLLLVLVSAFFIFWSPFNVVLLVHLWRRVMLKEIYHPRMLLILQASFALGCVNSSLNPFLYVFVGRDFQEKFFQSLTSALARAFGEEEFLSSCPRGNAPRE
Summary of the method: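 Agonism was scored by beta-Gal fragment complementation (chemiluminescent read, 1 h detection at ambient temperature) reporting beta-arrestin binding to GPR32 in engineered CHO-K1 cells. Compound treatment lasted 90 min at 37 C, normalized to a DMSO basal control.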
Note: 0% is about no effect.

Compound | activation
O=C(NCCOCCn1c(=O)oc2ccccc21)Nc1ccc(Cl)cc1 | inactive: 6.98%
Cc1ccccc1NC(=O)c1c(NC(=O)Cc2ccccc2)sc2c1CCC2 | inactive: -11.8%
CCNc1ccc(-c2nc(-c3ccco3)no2)cc1[N+](=O)[O-] | inactive: -6.51%
Cc1cc(C)c(NC(=O)c2cc(S(=O)(=O)N3CCN(c4ccccc4F)CC3)ccc2F)c(C)c1 | inactive: -1.78%
COc1ccc(N2CC(NC(=O)CCc3ccccc3)CC2=O)cc1OC (stereo not drawn) | inactive: -1.02%
Cc1ccc2oc(=O)n(CCCOc3ccc(Cl)cc3)c2c1 | inactive: -5.65%
CCOC(=O)c1cc(-c2ccc(C)cc2)n(CCC(=O)Nc2ccc(C(C)C)cc2)c1C | inactive: -26.2%
CN(C)S(=O)(=O)c1ccc(C(=O)NC2CC(=O)N(c3ccc4c(c3)OCCO4)C2)cc1 (stereo not drawn) | inactive: 6.39%
Cc1ccc(S(=O)(=O)N(CCc2ccccc2)CC(=O)Nc2cc(C)ccc2C)cc1 | inactive: -1.26%
Cc1cccc(NC(=O)CS(=O)(=O)c2nc(-c3ccccc3)cn2-c2cccc(Cl)c2)c1C | inactive: -16.8%
COc1cc(C2C(C(=O)Nc3ccc(C)cc3C)=C(C)Nc3nc4ccccc4n32)cc(OC)c1OC (stereo not drawn) | inactive: -2.5%
Cn1cc(C(=O)NCc2ccccc2)c(=O)c2cc(S(=O)(=O)N3CCOCC3)ccc21 | inactive: -8.92%
Cc1cccc(NC(=O)Cn2nnc(C(=O)Nc3ccccc3Br)c2N)c1C | inactive: -4.79%
COc1cccc(-c2nc(CS(=O)(=O)CC(=O)Nc3c(C)cc(C)cc3C)c(C)o2)c1 | inactive: -8.37%
COc1cccc(N2CCN(C(=O)C3CCN(S(=O)(=O)c4c(C)noc4C)CC3)CC2)c1 | inactive: -9.9%
CCOc1ccccc1NC(=O)c1nc2nc(C)cc(C(F)F)n2n1 | inactive: -2.69%
O=C(NC1CC(=O)N(c2ccc(Cl)cc2)C1)c1ccc2c(c1)OCO2 (stereo not drawn) | inactive: 2.28%
CSc1ccc(CCNC(=O)CN2C(=O)c3cccnc3Oc3ccc(C)cc32)cc1 | inactive: -15.8%
N=c1n(CCN2CCCCC2)c2ccccc2n1CC(O)COc1ccc(Cl)cc1Cl (stereo not drawn) | active: 69.6%
Cc1cc(NC(=O)N(C)CCc2c(C)nn(C)c2C)ccc1Br | active: 64.7%
CCCN1CCN(CCCNC(=O)Cn2nc(CC)n3c(cc4occc43)c2=O)CC1 | inactive: 4.99%

Compound | activation
Cc1ccc2c(=O)cc(C(=O)N(Cc3ccc(N(C)C)cc3)C3CCS(=O)(=O)C3)oc2c1 (stereo not drawn) | inactive: -14.6%
COc1ccc(Cn2c(SCc3ccc(C(=O)NCc4cccs4)cc3)nc3cccnc32)cc1 | inactive: -19.3%
CC1(C)O[C@H]2[C@@H](O1)[C@@H](C(=O)Nc1ccc(F)c(F)c1)O[C@@H]1OC(C)(C)O[C@@H]12 | inactive: -3.59%
CCc1cccc(C)c1NC(=O)CSc1nc2ccccc2nc1N1CCOCC1 | inactive: -6.16%
Cc1cc(F)ccc1NS(=O)(=O)c1c(C)nc2scc(C)n2c1=O | inactive: -2.04%
COc1ccccc1CN1C(=O)CN(C2CCCCCC2)C(=O)C1c1ccc(C)cc1 (stereo not drawn) | inactive: -15.4%
CC1=C(c2ccc(C(C)C)cc2)S(=O)(=O)NC1=NCc1ccccc1Br | inactive: -6.96%
CCOC(=O)c1c(C)oc2ccc(N(C(=O)c3ccncc3)S(=O)(=O)c3ccc(Br)cc3)cc12 | inactive: -2.03%
CCOc1ccc(N(CC(=O)NCc2ccc(C)cc2)S(=O)(=O)c2c(C)noc2C)cc1 | inactive: -21.8%
O=C(c1ccc(CSc2nc3ccncc3n2Cc2cccc(F)c2)cc1)N1CCCCC1 | inactive: 38%
Cc1cccc(NC(=O)Cn2c(=O)nc(-c3ccccc3)c3ccccc32)c1C | inactive: 2.07%
CNC(=O)C1CCC(Cn2c(=O)c3sccc3n(CC(=O)Nc3ccc(C)c(F)c3)c2=O)CC1 (stereo not drawn) | inactive: -17.6%
CCOc1cc2[nH]c(=O)n(CCCC(=O)N3CCN(c4ccc(OC)cc4)CC3)c(=O)c2cc1OCC | inactive: -7.03%
CCOC(=O)c1c(C)[nH]c(C)c1S(=O)(=O)N1CCC(C(=O)Nc2ccc(C)cn2)CC1 | inactive: -7.72%
CCOc1ccc(CCNC(=O)Cn2ncc3c(=O)oc4ccc(C)cc4c32)cc1 | inactive: -7.7%
CCn1c2ccccc2c2cc(NC(=O)COc3cccc(C)c3)ccc21 | inactive: 24%
COc1ccc(C)cc1NC(=O)C1CCCN(S(=O)(=O)c2ccc3[nH]c(=O)ccc3c2)C1 (stereo not drawn) | inactive: -18.7%
COc1cc(NC(=O)CN2C(=O)CN(C)C(=O)c3ccccc32)cc(OC)c1OC | inactive: 8.88%
COc1ccc(OC)c(NS(=O)(=O)c2ccc3[nH]c4c(c3c2)CCCCC4)c1 | inactive: 2.19%
CCCCN1CC(c2nc3ccccc3n2CCCCOc2ccc(C)c(C)c2)CC1=O (stereo not drawn) | inactive: 49%
Cc1ccc(F)c(NC(=O)Nc2ccc3snnc3c2)c1 | active: 68.1%

Compound | activation
O=C1c2[nH]nc(-c3ccccc3O)c2C(c2cccc(Cl)c2)N1Cc1cccnc1 (stereo not drawn) | inactive: -16.9%
CCOc1ccc(CCNC(=O)c2cn(CC)c3ccc(S(=O)(=O)N4CCCCCC4)cc3c2=O)cc1OCC | inactive: -21.3%
CC(=O)N1CCCc2cc(S(=O)(=O)N(C)CC(=O)Nc3cccc(C)c3C)ccc21 | inactive: 5.25%
Cc1cccc(CNC(=O)Cn2ccc3cc(S(=O)(=O)N4CCCC4)ccc32)c1 | inactive: 2.08%
O=C(NCCN1CCN(c2cccc(Cl)c2)CC1)C1COc2ccccc2C1 (stereo not drawn) | inactive: -24.3%
CCC(C)(C)c1ccc(CC(C)CN2C[C@@H](C)O[C@@H](C)C2)cc1 (stereo partly drawn) | active: 113%
CCOc1ccc(NC(=O)CN2CCN(CC(=O)Nc3ccccc3OCC)CC2)cc1 | inactive: -9.9%
Cc1cc(C(=O)Nc2c(C)nn(Cc3ccc(F)cc3)c2C)no1 | inactive: 11.4%
NC(=O)C1CCN(C(=O)Cn2c(-c3cccs3)cc3ccccc32)CC1 | inactive: -17%
COc1ccc(Cl)cc1NC(=O)CSc1nc(-c2ccco2)cc(C(F)(F)F)n1 | inactive: -11.9%
CCOc1cc(C(=O)N2CCC(c3ccncc3)CC2)cc(OCC)c1OCC | inactive: -9.59%
COc1ccc(CCNC(=O)CCn2c(=O)c3cccn3c3cccnc32)cc1OC | inactive: 7.83%
CCc1ccccc1Nc1nc2ccccc2n2cnnc12 | inactive: -12.1%
CCCCN(c1ccccc1)S(=O)(=O)c1ccc2c(c1)CC(C)N2C(=O)C1CC1 (stereo not drawn) | inactive: -25.1%
CC1CN(S(=O)(=O)c2ccc3c(c2)NC(=O)CC(=O)N3)c2ccccc2O1 (stereo not drawn) | inactive: 8.81%
COc1ccccc1-n1nc(-c2ccccc2)c2cnc3cc(C(F)(F)F)ccc3c21 | inactive: -6.26%
CCOC(=O)c1ccc(NC(=O)COC(=O)c2cn(CC)c3nc(C)ccc3c2=O)cc1 | inactive: 3.89%
Cc1cccc(C)c1OC(=O)CSc1nnc(-c2cccs2)o1 | inactive: 3.59%
COc1ccc(-c2oc3ncn4nc(-c5ccccc5C)nc4c3c2-c2ccc(OC)cc2)cc1 | inactive: -7.27%
COc1ccc(CNC(=O)CCc2nnc3n(CC(C)C)c(=O)c4ccccc4n23)cc1 | inactive: -0.84%
CCOC(=O)c1ccc(C#Cc2ccc3c(c2)C(C)(C)CCS3)nc1 | inactive: 11.6%

Compound | activation
Cc1ccc(C)c(CN2C(=O)c3ccccc3S(=O)(=O)c3ccc(C(=O)N4CCN(c5ccccc5F)CC4)cc32)c1 | inactive: -11.5%
O=S(=O)(Nc1ccc(-c2ccc(N3CCCC3)nn2)cc1)c1cccc(C(F)(F)F)c1 | inactive: 5.4%
CCn1ccc2cc(S(=O)(=O)N3CCCN(C(=O)NCCOC)CC3)ccc21 | inactive: 19.3%
CC(C)N(CCC(=O)c1ccc2ccccc2c1)Cc1ccccc1 | inactive: -9.1%
COc1ccc(C)cc1NS(=O)(=O)c1ccc2[nH]c(=O)c(=O)[nH]c2c1 | inactive: -8.31%
CCS(=O)(=O)N1CCc2cc(C(=O)Nc3cc(C(F)(F)F)ccc3Cl)ccc21 | inactive: -0.73%
COc1cccc(NC(=O)Cn2c(=O)n(CCCCC(=O)NCCc3ccccc3)c(=O)c3ccccc32)c1 | inactive: 5.53%
CCOC(=O)C1=C(CN2CCN(c3cc(C)ccc3C)CC2)NC(=O)NC1c1ccc(Cl)cc1 (stereo not drawn) | inactive: -24.5%
CCOc1ccc(CCNC(=O)Cn2nc(CC)n3c(cc4sccc43)c2=O)cc1 | inactive: -13.4%
Fc1ccc(Cn2c(-c3cccc(Br)c3)nc3ccccc32)cc1 | inactive: -13.9%
COc1ccc(C2NC(=O)N(C)C3=C2C(=O)N(c2ccc(F)cc2)C3)cc1 (stereo not drawn) | inactive: -7.03%
O=C(Nc1c2c(nn1-c1ccc(Cl)cc1)CS(=O)(=O)C2)c1ccccc1F | inactive: -4.63%
O=C(NCCc1nc2ccccc2n1CCCOc1ccc(Cl)cc1)C1CCCCC1 | inactive: 18.5%
Cc1nn2c(C)c(C(=O)NCC(C)c3ccccc3)cnc2c1-c1ccccc1 (stereo not drawn) | inactive: -19.3%
COc1ccc(C(=O)Nc2noc3ccccc23)cc1 | inactive: -14.6%
Cc1cccc(NC(=O)CSc2nccn2-c2cccc(Cl)c2)c1C | inactive: -18.5%
CCOc1cc(C2c3c(-c4ccccc4O)n[nH]c3C(=O)N2Cc2cccnc2)ccc1O (stereo not drawn) | inactive: -13.9%
CCC(C(=O)NCc1ccccc1Cl)n1nc(C)c2sc3ccccc3c2c1=O (stereo not drawn) | inactive: -7.9%
CSc1ccc(/C=C2/C(C)=C(CC(=O)O)c3cc(F)ccc32)cc1 | inactive: 4.08%
Cc1ccc(NC(=O)c2sc(-n3nc(C)c(Cc4ccc5c(c4)OCO5)c3C)nc2C)cc1C | inactive: 4.49%

Reference: PubChem BioAssay AID1346428 (National Center for Advancing Translational Sciences (NCATS), 2018)
